Out of some 120,000 compounds screened, about 5,300 (4.4%) were called active. Inconclusive results, whose numbers are uncertain, are shown with a selection of clear calls. Calls come from the whole dose curve; as a rule, active = well fitted inhibition curve with a large enough effect; inconclusive = small, poorly fitted or top-dose-only effect; inactive = no such curve, though single readings can be large or run the other way. Potencies beside an inconclusive call are fits to weak or partial responses and may not hold up.
Experiment: qHTS Primary assay for Inhibitors of Plasmodium falciparum Dd2 growth in vitro; note: nearly all actives have a fitted effect of over 65% in size;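 for activity, negative = inhibition: plate controls were DMSO vehicle for no effect and reference drug for full effect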
Details: P. falciparum Dd2 growth, SYBR Green, 72 h; activity, negative = inhibition: at 28.9 µM (top of the series) unless noted; series mostly up to 28.9 µM
Summary of the method: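 Infected erythrocytes (Dd2, 0.3% parasitemia, 2.5% hematocrit final) are added to compound in RPMI-1640/Albumax II medium, grown 72 h at 37C in low oxygen, then lysed with saponin/Triton-X containing SYBR Green and read by fluorescence.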
Potency is the fitted concentration of half-maximal effect; tags give direction and shape of the fitted curve.

Row | Structure (SMILES) | Potency | activity, negative = inhibition
1 | CCNC(=O)NC[C@H]1C[C@@H]2CCN1C[C@@H]2c1cc(-c2cccs2)nn1C | inactive | 
2 | Cc1cc(CNS(=O)(=O)c2ccc3c(c2)CCN(C(=O)C(O)C(C)C)C3)no1 (stereo not given) | inactive | 
3 | COc1ccc(-c2noc(Nc3cc(OC)c(OC)c(OC)c3)n2)cc1OC | inconclusive: 15.8 µM [inhibitor, single point] | 
4 | Cc1ccc(S(=O)(=O)N[C@H]2CO[C@H]3[C@@H]2OC[C@@H]3n2nnnc2Oc2ccc(-n3ccnc3)cc2)cc1 | inconclusive: 12.6 µM [inhibitor, single point] | 
5 | COCc1cc(C[C@@H]2C[C@H](NS(=O)(=O)c3ccccc3)C2(C)C)no1 | inconclusive: 3.55 µM [inhibitor, single point] | 
6 | N#Cc1ccc(OCc2nc3c(n2Cc2ccccc2)C(=O)N(CC2CC2)CCN3)cc1 | active: 10 µM | 
7 | CCc1ccc(C(c2ccccc2)c2c[nH]c3ccc(C)cc23)s1 (stereo not given) | inconclusive: 8.91 µM [inhibitor, partial curve, poor fit] | 
8 | Cc1sc2ncn(CC(=O)N3CCN(c4ccccc4)CC3)c(=O)c2c1S(=O)(=O)N1CCN(c2ncccn2)CC1 | inconclusive: 10 µM [inhibitor, single point] | 
9 | CCOC(=O)Cc1ccc(NC(=O)N2CCc3c(sc4c3CCCC4)C2c2ccc(F)cc2)cc1 (stereo not given) | inconclusive: 11.2 µM [inhibitor, single point] | 
10 | O=C(N[C@H]1[C@H]2CCO[C@H]2[C@@H]1N1CCCC1)c1ccc(-c2cccc(F)c2)cc1 | inconclusive: 20 µM [inhibitor, single point] | 
11 | CCn1c(=O)c2cc(C(=O)N3CCN(c4cccc(OC)c4)CC3)sc2c2ccccc21 | inconclusive: 20 µM [inhibitor, single point] | 
12 | c1cn(CCCN2CCCC2)c(-c2cc3n(n2)CCCNC3)n1 | inactive | 
13 | COc1ccccc1CNC(=O)c1cc2c(s1)CCN(C(=O)c1ccc(C)cc1)C2 | inconclusive: 1.41 µM [inhibitor, full curve, poor fit] | 
14 | CCOC1CCOC2(CCN(C(=O)c3ccco3)CC2)C1 (stereo not given) | inactive | 
15 | CCN1CCN(c2ncc3c(n2)CCN(Cc2sccc2C)C3)CC1 | inconclusive: 10 µM [inhibitor, partial curve] | 
16 | CCOc1ccc(Nc2nc(C)c(NC(=O)c3ccc(C)cc3)c(Nc3ccc(OCC)cc3)n2)cc1 | inactive | 
17 | O=C(CSc1nnc2scc(-c3ccc(Cl)cc3)n12)Nc1cccc(C(F)(F)F)c1 | inconclusive: 11.2 µM [inhibitor, single point] | 
18 | COc1ccccc1-c1cc([C@H]2CN3CC[C@H]2C[C@@H]3CNC(=O)C2CCCCC2)n(C)n1 | inactive | 
19 | CCN1c2cc(C(=O)Nc3ccc(Cl)c(Cl)c3)ccc2C(=O)N2CCCCCC21 (stereo not given) | inconclusive: 3.55 µM [inhibitor, single point] | 
20 | CCc1ccc(CNC(=O)CSc2c3c(nc4ccc(Cl)cc24)CCCC3)cc1 | inconclusive: 11.2 µM [inhibitor, single point] | 
21 | O=C(NCCn1cc(SCc2ccccc2F)c2ccccc21)c1cccs1 | inconclusive: 10 µM [inhibitor, single point] | 
22 | Cc1nn2c(c1-c1cccnc1N1CCOCC1)N(CCc1ccccc1)CCC2 | inconclusive: 0.794 µM [inhibitor, full curve, poor fit] | 

Row | Structure (SMILES) | Potency | activity, negative = inhibition
23 | CCN(CC)C(=O)C[C@@H]1CCNC[C@@H]1Cc1cc(-c2ccc(F)cc2)on1 | inconclusive: 5.62 µM [inhibitor, single point] | 
24 | CCNC(=O)N1C[C@H]2OC(=O)N(Cc3ccc(OC)c(OC)c3)[C@H]2C1 | inactive | 
25 | CC(=O)Nc1cccc(-c2cc(-c3c(C)noc3C)c3cncn3c2)c1 | inconclusive: 10 µM [inhibitor, partial curve, poor fit] | 
26 | Cc1cn2nc(C(=O)N3CCN(c4ccccc4)CC3)cc2c(N2CCCC2)n1 | inactive | 
27 | CCOc1ccccc1NC(=O)c1c(NCc2cccs2)sc2c1CCCCC2 | inconclusive: 11.2 µM [inhibitor, single point] | 
28 | c1ccc(C2=NOC3(CCCN(CC4CCCCC4)C3)C2)cc1 (stereo not given) | inconclusive: 12.6 µM [inhibitor, partial curve] | 
29 | Cc1c(-c2cc(C(=O)N3CCC(=O)N(CC4CC4)C(C(C)C)C3)no2)cnn1C (stereo not given) | inactive | 
30 | CC(=O)Nc1ccc(NC(=O)c2cc3sccc3n2Cc2ccc(Cl)cc2)cc1 | inconclusive: 17.8 µM [inhibitor, single point] | 
31 | CCCNCc1ccc(-c2ccccc2)o1 | inconclusive: 11.2 µM [inhibitor, partial curve] | 
32 | Cc1[nH]c2c(C)ccc(C)c2c1CC(=O)N1Cc2ccccc2C(O)C1 (stereo not given) | inconclusive: 2.82 µM [inhibitor, partial curve, poor fit] | 
33 | c1ccc(OCc2cc(CC3(NCc4cccnc4)COC3)no2)cc1 | inactive | 
34 | CCCc1noc(-c2cn(C3CCN(C(=O)c4ccc(OC)cc4C)CC3)nn2)n1 | inconclusive: 1.78 µM [inhibitor, full curve] | 
35 | CCn1c(C)c(C)c2cc(C(=O)NCc3ccc(OC)cc3OC)ccc21 | inactive | 
36 | CCN(CC)Cc1cnc2c(C(=O)N3CCCC3c3ccccn3)cnn2c1 (stereo not given) | inactive | 
37 | CCc1c(C)sc2c1CCN(C(=O)Nc1cc(Cl)c(OC)cc1OC)C2c1ccccc1 (stereo not given) | inconclusive: 17.8 µM [inhibitor, single point] | 
38 | CC1=C[C@@H](CNS(C)(=O)=O)[C@H](C(C)C)C[C@H]1Cc1nc2ccc(Cl)cc2[nH]1 | inconclusive: 31.6 µM [inhibitor, single point] | 
39 | Cc1cccc(C(=O)N2CCC3(CC2)c2[nH]c4ccccc4c2CCN3C)c1 | inconclusive: 5.01 µM [inhibitor, partial curve, poor fit] | 
40 | COc1ccc2c(c1)CC(C(=O)NCCCN1CCN(c3ccccc3F)CC1)CO2 (stereo not given) | inconclusive: 10 µM [inhibitor, single point] | 
41 | CCC(=O)N1CCc2cc(Br)cc(S(=O)(=O)CCC(=O)Nc3ccc(C)c(F)c3)c21 | active: 5.01 µM | 
42 | O=C(NCC1CCN(Cc2cccc(F)c2)CC1)C1CCN(c2cn[nH]c(=O)c2)C1 (stereo not given) | inconclusive: 17.8 µM [inhibitor, single point] | 
43 | CC(=O)N1CCN(C(=O)CCc2nc3ccc(F)cc3[nH]2)CC(O)C1 (stereo not given) | inactive | 
44 | CCOC(=O)Cn1c(=O)n(-c2ccccc2OC)c2nc(-c3ccccc3F)nc(C(N)=O)c21 | inactive | 

Row | Structure (SMILES) | Potency | activity, negative = inhibition
45 | COc1ccc2ccc(OCc3nc(C(=O)N(C)Cc4cc(C)no4)co3)cc2c1 | inconclusive: 7.94 µM [inhibitor, partial curve] | 
46 | Cc1noc(C)c1-c1cc2cc(CO)oc2c(-c2cccc(OC(C)C)c2)n1 | inconclusive: 11.2 µM [inhibitor, single point] | 
47 | O=C1CC(c2ccccc2)N(C(=O)C2CC2)CCCNCCN1 (stereo not given) | inactive | 
48 | O=C(C[C@@H]1C[C@H]2O[C@H](CNCc3ccncc3F)[C@@H](O)[C@H]2O1)N1CCC(F)(F)C1 | inactive | 
49 | CCOc1ccccc1CN1CCCC2(Cc3ccccc3CNC2=O)C1 (stereo not given) | inconclusive: 7.08 µM [inhibitor, single point] | 
50 | Cc1ccc(OC2(C(=O)NC(C)c3cn4ncsc4n3)CCNCC2)cc1 (stereo not given) | inactive | 
51 | CCc1cccc2c(C(CC(=O)N3CCc4ccccc4C3)c3cccc4c3OCO4)c[nH]c12 (stereo not given) | active: 8.91 µM | 
52 | CN(C)C[C@@H]1CN(c2ccccn2)C[C@H]1NC(=O)c1cccc(C#N)c1 | inconclusive: 5.01 µM [inhibitor, partial curve, poor fit] | 
53 | CCNC(=O)N1CCc2nc(OCC)ccc2C1 | inconclusive: 4.47 µM [inhibitor, full curve, poor fit] | 
54 | Fc1ccccc1-c1n[nH]c2c1CN(Cc1cccn1-c1nccs1)CC2 | inconclusive: 12.6 µM [inhibitor, single point] | 
55 | Cc1ccc(CCNC(=O)c2ccc(CNS(=O)(=O)c3ccccc3)cc2)cc1 | inconclusive: 17.8 µM [inhibitor, single point] | 
56 | CCOc1ccccc1NC(=O)Cn1c(=O)n(-c2ccc(F)cc2)c(=O)c2c3c(sc21)CN(C(C)=O)CC3 | inconclusive: 17.8 µM [inhibitor, single point] | 
57 | COC(=O)CNC(=O)c1cc(-c2ccc([S+](C)(=O)[O-])cc2)c2cccn2n1 | inconclusive: 11.2 µM [inhibitor, single point] | 
58 | O=c1[nH]c(C2CCN([S+](=O)([O-])c3cccc(C(F)(F)F)c3)CC2)nn1-c1ccc(Cl)cc1 | inactive | 
59 | CCc1ccc(-n2c(SCc3ccccc3C)nc3[nH]ncc3c2=O)cc1 | inconclusive: 15.8 µM [inhibitor, single point] | 
60 | O=C1NCc2ccccc2CC12CCCN(Cc1ccc(O)cc1O)C2 (stereo not given) |  | inconclusive: -58.4% [inhibitor]
61 | CCOc1ccc(-c2cc3c(=O)n(CCNC(=O)c4ccncc4)ccn3n2)cc1 | inconclusive: 2.24 µM [inhibitor, partial curve] | 
62 | COC1CCC(C(=O)N2CCC3(CC2)OC(=O)N(Cc2ccccc2)C3(C)c2ccccc2)CC1 (stereo not given) | inconclusive: 1.78 µM [inhibitor, single point] | 
63 | COc1cccc(NC(=O)CN2C(=O)NC(c3ccc(C)cc3)C3=C2COC3=O)c1 (stereo not given) | inconclusive: 8.91 µM [inhibitor, single point] | 
64 | COC(=O)[C@@H]1Cc2ncn(Cc3ccc(Cl)cc3)c2CN1S(C)(=O)=O | inconclusive: 22.4 µM [inhibitor, single point] | 
65 | CCN1C[C@@H]2C(C(=O)Nc3cccc(Cl)c3)=NO[C@@H]2C1 | inactive | 

From PubChem BioAssay AID1347417 (National Center for Advancing Translational Sciences (NCATS), 2020)
